# Source: PMC4336329 (PLoS ONE, 2015)
# About 14,000 (4.5%) of roughly 310,000 compounds showed an effect of 50% or more. Effects have a minus sign here. Some of the results follow.
# Molecular target: human ether-à-go-go-related gene (hERG) potassium channel (human, UniProt Q12809)
# Assay: primary screen, population patch clamp on CHO cells stably expressing hERG
# 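Note: peak tail current of the secondary pulse compared with the same well before compound.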
# Chain of human ether-à-go-go-related gene (hERG) potassium channel (Q12809 whole entry, looked up): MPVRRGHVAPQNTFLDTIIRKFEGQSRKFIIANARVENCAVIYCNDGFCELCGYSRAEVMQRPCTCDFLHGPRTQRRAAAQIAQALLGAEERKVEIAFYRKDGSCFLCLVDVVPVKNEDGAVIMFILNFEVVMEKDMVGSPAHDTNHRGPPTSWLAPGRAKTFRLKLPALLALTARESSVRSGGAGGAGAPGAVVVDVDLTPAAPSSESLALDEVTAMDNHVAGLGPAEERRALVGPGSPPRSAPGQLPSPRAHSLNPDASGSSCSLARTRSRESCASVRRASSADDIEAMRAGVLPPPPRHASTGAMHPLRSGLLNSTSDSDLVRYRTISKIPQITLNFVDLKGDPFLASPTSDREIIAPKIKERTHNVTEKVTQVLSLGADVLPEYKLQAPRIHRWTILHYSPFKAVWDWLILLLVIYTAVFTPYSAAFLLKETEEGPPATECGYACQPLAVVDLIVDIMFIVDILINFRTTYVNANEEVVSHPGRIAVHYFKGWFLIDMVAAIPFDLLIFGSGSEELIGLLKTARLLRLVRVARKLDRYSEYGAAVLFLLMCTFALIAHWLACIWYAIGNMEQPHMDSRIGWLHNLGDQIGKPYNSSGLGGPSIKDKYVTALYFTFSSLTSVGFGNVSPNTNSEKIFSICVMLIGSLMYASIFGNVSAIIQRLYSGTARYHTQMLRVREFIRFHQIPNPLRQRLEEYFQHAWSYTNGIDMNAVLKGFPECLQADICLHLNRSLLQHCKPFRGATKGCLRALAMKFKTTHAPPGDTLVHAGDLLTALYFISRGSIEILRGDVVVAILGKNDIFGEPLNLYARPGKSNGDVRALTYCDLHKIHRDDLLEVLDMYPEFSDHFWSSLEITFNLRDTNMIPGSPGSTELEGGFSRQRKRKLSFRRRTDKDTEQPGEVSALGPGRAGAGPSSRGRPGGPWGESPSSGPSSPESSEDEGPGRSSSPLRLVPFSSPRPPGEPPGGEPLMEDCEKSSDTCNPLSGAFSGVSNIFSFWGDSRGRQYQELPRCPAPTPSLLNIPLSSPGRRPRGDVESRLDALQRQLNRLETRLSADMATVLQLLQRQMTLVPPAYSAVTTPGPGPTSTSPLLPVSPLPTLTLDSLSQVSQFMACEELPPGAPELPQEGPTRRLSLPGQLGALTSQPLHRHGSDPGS
row,SMILES,"hERG current change (%, negative = inhibition) at 10uM [%]"
1,COc1ccccc1Nc1nc(-c2cccnc2)cs1,-10.6
2,CC1CCCN(C(=O)c2ccc3c(c2)OCCO3)C1 (stereo not drawn),1.16
3,Cc1nn(S(=O)(=O)c2ccc(F)cc2)c(C)c1S(=O)(=O)N1CCCCC1,11.3
4,Cc1onc(-c2ccccc2)c1C(=O)Nc1nnc(N(C)Cc2ccccc2)s1,-2.31
5,COCCN1C(=O)C(=O)/C(=C(/O)c2ccc(S(=O)(=O)N3CCOCC3)cc2)C1c1cccc(OC)c1 (stereo not drawn),21.4
6,CC(=O)Nc1ccc2c(c1)nc(C)n2-c1ccccc1,11.6
7,COc1ccc(CNC(=O)c2ccc(N3CCCC3=O)cc2)cc1,-0.616
8,CCCCN(C(=O)c1cccc(S(=O)(=O)N2CC(C)OC(C)C2)c1)c1c(N)n(CCCC)c(=O)[nH]c1=O (stereo not drawn),7.96
9,COc1ccc(OC)c(-n2c(=O)c3ccccc3c3ccccc3c2=O)c1,12.5
10,O=C(c1ccc(COc2ccccc2[N+](=O)[O-])o1)N1CCCCCC1,-16.5
11,CCO[C@@H]1OC(C(=O)O)=C[C@H](c2coc3ccccc3c2=O)[C@H]1CCCO,18.9
12,Cc1ccnc(NS(=O)(=O)c2ccc(NS(C)(=O)=O)cc2)n1,12.4
13,Cc1ccc(C(=O)NN2CCOCC2)cc1,-3.79
14,C=C(C(=O)O)C1CCC2(C)CCCC(C)(O)C2C1 (stereo not drawn),9.1
15,CCNS(=O)(=O)c1ccc(OC)c(C)c1,12.3
16,COc1ccc(NC(=O)COc2coc(CN3CCCc4ccccc43)cc2=O)cc1,-13.6
17,NC(=O)C1CCN(CC(=O)Nc2ccccc2C(=O)NC2CC2)CC1,1.42
18,CCN(Cc1ccccc1)S(=O)(=O)c1c(C)[nH]c(C)c1C(=O)N1CCCCC1,-5.33
19,CCOC(=O)N1CCN(C(=O)Cn2nc(C)n3nc(-c4ccc(OC)cc4)cc3c2=O)CC1,13.4
20,O=C(CSc1n[nH]c(=O)[nH]c1=O)c1ccccc1,5.81
21,CCOC(=O)C1=C(c2ccccc2)OC(N)=C(C#N)C1C1CCCCC1 (stereo not drawn),6.3
22,O=C(O)c1cc(-c2ccccc2)nc(-c2ccccc2)c1,22.5
23,CCOC(=O)N1CCN(C2=NC3(CCCCC3)C(C#N)C(=O)N2)CC1 (stereo not drawn),1.79
24,COc1ccc(C(=O)NCc2nnc(SCC(=O)c3ccccc3)n2C)cc1OC,-18.2

row,SMILES,"hERG current change (%, negative = inhibition) at 10uM [%]"
1,O=C(Nc1cccnc1)c1c(F)c(F)c(F)c(F)c1F,-6.62
2,COCCCNC(=O)CN(c1cc(Cl)ccc1OC)S(=O)(=O)c1ccc(C)c([N+](=O)[O-])c1,13.1
3,CC1CCCCN1c1nnc(NC(=O)c2cc(-c3ccc(Br)cc3)on2)s1 (stereo not drawn),-5.29
4,CC1CCCCN1C(=O)Cn1cc(C=O)c2ccccc21 (stereo not drawn),-5.3
5,COc1ccc(NC(=O)c2cccc(S(=O)(=O)N3CCc4ccccc43)c2)cn1,-0.939
6,O=C(O)c1cccnc1Cl,10.7
7,Cc1ccc(C)c(C(=O)OCC(=O)Nc2cccc(S(=O)(=O)N3CCCCC3)c2)c1,1.08
8,CCOc1ccc(S(=O)(=O)NC(C)C(=O)NC2CCCC2)cc1 (stereo not drawn),16.7
9,CS(=O)(=O)c1ccc(NC(=O)CCN2C(=O)C3CC=CCC3C2=O)cc1 (stereo not drawn),-3.8
10,COc1ccccc1Sc1ccccc1/C=N/NC(N)=O,19.6
11,COc1ccc(C(=S)N2CCN(C)CC2)cc1Br,-9.51
12,CS(=O)(=NS(=O)(=O)c1ccc(Cl)cc1)c1ccccc1 (stereo not drawn),-10.2
13,Cc1cccc(C)c1N1CCc2cn[nH]c21,8.17
14,Cc1ccnc(SCC(=O)c2ccc(Br)s2)n1,3.59
15,O=c1cc(-c2ccncc2)oc2ccccc12,0.135
16,O=C(CSCCO)Nc1ccccc1,6.45
17,O=C(Nc1cccnc1Cl)c1cc2c(s1)-c1ccccc1OC2,-3.48
18,CCOC(=O)c1cc(-c2ccc(C)o2)nn1CCC#N,10.7
19,Cc1nc2ccc([N+](=O)[O-])cc2c(=O)n1Cc1ccccc1Br,-13.6
20,CC1CCCCC1NC(=O)CCCn1c(=S)[nH]c2ccccc2c1=O (stereo not drawn),17.9
21,COC(=O)c1cc(NC(=O)C2(S(=O)(=O)c3ccc(C)cc3)CC2)cc(C(=O)OC)c1,-36.3
22,O=C(CSc1n[nH]c(-c2ccco2)n1)Nc1ccc(F)cc1,9.88
23,COCc1c(C(=O)N/N=C(\C)c2ccc(Cl)s2)nnn1-c1nonc1N,14.4
24,CCCC(c1nnnn1CS(=O)(=O)c1ccc(C)cc1)N1CCN(CC)CC1.Cl (stereo not drawn),-10.7

row,SMILES,"hERG current change (%, negative = inhibition) at 10uM [%]"
1,COc1ccc2[nH]c(C)c(CCNC(=S)Nc3cc(C)cc(C)c3)c2c1,18
2,CC1(C)Cc2c(sc3nc(-c4cccs4)n(N)c(=O)c23)CO1,-22.5
3,CC1=C2[C@@H]3OC(=O)[C@H](C)C3CC[C@@]2(C)C=CC1=O (stereo partly drawn),27.7
4,Oc1ccc2cccnc2c1,-2.63
5,O=C(c1ccc2ccccc2n1)N1CCN(c2ccccn2)CC1,-2.65
6,COc1cccc(N2C(=O)N(c3ccccc3Cl)C3CS(=O)(=O)CC32)c1 (stereo not drawn),0.167
7,Cc1cc2nc(-c3ccc[nH]c3=O)n(Cc3ccc(F)cc3)c2cc1C,-11.7
8,Cc1cc(C)c2c(n1)sc1c(N3CCCCC3)ncnc12,3.31
9,CSc1nc(-c2ccco2)nn1S(=O)(=O)c1ccc(C)cc1,-2.74
10,COC(=O)CCC(=O)OC1(C)C(=O)C=C2C=C(C3CC3)N(C3CCCCC3)C=C2C1=O (stereo not drawn),-18.2
11,CCOC(=O)CC(=O)NC(CC(=O)OC)c1ccc(Br)cc1 (stereo not drawn),7.04
12,CCOC(=O)c1ccc(NC(=O)C2CC(=O)Nc3nc4ccccc4n32)cc1 (stereo not drawn),11.1
13,CC(C)(C)Cc1nnc(NS(C)(=O)=O)s1,1.81
14,COc1ccccc1/C=C/c1nc(C#N)c(N(C)C)o1,17.4
15,Cc1cc(Br)c(S(=O)(=O)n2nnc3ccccc32)cc1C,5.1
16,Cc1cccc2sc(NC(=O)CNS(=O)(=O)c3ccc(Br)s3)nc12,12.3
17,Cc1noc(COc2ccccc2OCC(O)CNC(C)(C)C)n1.Cl (stereo not drawn),14.9
18,Cc1ccc(NS(=O)(=O)c2cccc(C(=O)NCCCN3CCOCC3)c2)cc1,-31.2
19,COc1ccc(S(=O)(=O)N2CCCCC2)cc1,0.024
20,Cc1ccc(C(=O)OCC(=O)NCCc2ccccc2)cc1C,-8.55
21,CN(/N=C/c1cc(Cl)cc(Cl)c1O)c1c(Cl)cccc1[N+](=O)[O-],4.19
22,Cc1cc(C(=O)NCC(C)(C)N2CCOCC2)c(C)o1,13.5
23,Cc1ccc(C(=O)NCC(=O)OCc2csc(-c3ccccc3)n2)cc1,14.8
24,CC1C/C(=C\c2ccccc2[N+](=O)[O-])c2nc3ccccc3c(C(=O)O)c2C1 (stereo not drawn),13

row,SMILES,"hERG current change (%, negative = inhibition) at 10uM [%]"
1,CC(=O)Nc1ccc2oc(-c3cc(F)c(F)cc3Cl)nc2c1,11.1
2,COc1ccc(-c2[nH]ncc2-c2cnc(C)s2)c(O)c1,19.3
3,N/C(=N\S(=O)(=O)c1cccs1)c1ccccc1,5.69
4,CC12CCCCC1N(O)CN2O (stereo not drawn),-12.9
5,Cc1[nH][nH]c(=O)c1C,6.25
6,O=C(CSc1nc2ccccc2[nH]1)Nc1c(F)c(F)c(F)c(F)c1F,-0.465
7,CC1CC(C)CN(C(=O)CN2C(=O)NC(C)(C)C2=O)C1 (stereo not drawn),0.776
8,Cc1cc(-n2c(=O)c(C#N)cc3c(=O)n4cccc(C)c4nc32)no1,-65.1
9,CCn1c(C)nc2cc(C(=O)OC)ccc21,14.3
10,Clc1ccc(Cl)c(OCCCCN2CCNCC2)c1.O=C(O)C(=O)O,-17.4
11,COC(=O)N(NC(=O)C(O)(c1ccccc1)c1ccccc1)c1ccc(C)cc1,0.00068
12,COc1ccc2[nH]c(C)cc(=O)c2c1,20.8
13,NC(=O)C1CCN(c2nc3c(S(=O)(=O)c4ccccc4)nnn3c3ccccc23)CC1,2.28
14,CC(=O)Nc1cc[n+](C(C)C(=O)c2ccc(Br)cc2)cc1.[Cl-] (stereo not drawn),2.81
15,Cc1ccc(-n2c(-c3ccncc3)n[nH]c2=S)cc1C,22.4
16,CC(C)CN(C(=O)CCC(=O)OCC(=O)N(C)c1ccccc1)c1c(N)n(CC(C)C)c(=O)[nH]c1=O,10.7
17,CCN(CC)CCN1C(=O)C(=O)/C(=C(/O)c2ccc(OC)cc2)C1c1ccco1 (stereo not drawn),8.87
18,Cn1c(=O)oc2cc(S(=O)(=O)NCCC(=O)N3CC=C(c4ccccc4)CC3)ccc21,-26
19,COc1cc(CNc2cccc(F)c2)cc(Br)c1O,5.27
20,O=[N+]([O-])c1cc(Cl)ccc1N1CCN(c2cccc(C(F)(F)F)c2)CC1,9.63
21,COc1ccc(C)cc1NC(=O)N1CCC2(CC1)OCCO2,22
